From patent publication US10456379B2, “Imidazole-based antimicrobial agents” (priority 2014, dated 2019)

tested on: Streptococcus pneumoniae (Chester, ATCC49619); assay: Broth microdilution MIC assay, Streptococcus pneumoniae; format: cell-based; conditions: MIC class score, MIC100, broth microdilution

SMILES	Antibacterial activity Streptococcus pneumoniae
Cc1nc(-c2ccc(-c3ccc(Cl)cc3)o2)[nH]c1-c1ccccc1 [compound 5]	4 (MIC of 1 μg/ml or less for preventing streptococcal growth 100% (MIC100))
FC(F)(F)c1ccccc1-c1ccc(-c2nc(Cl)c(-c3ccccc3)[nH]2)o1 [compound 65]	4 (MIC of 1 μg/ml or less for preventing streptococcal growth 100% (MIC100))
Cc1nc(-c2ccc(-c3ccccc3F)o2)[nH]c1Cc1ccc(O)cc1 [compound 78]	1 (MIC100 of 11-20 μg/ml or an MIC50 of <10 μg/ml)
Clc1ccccc1-c1ccc(-c2ncc(-c3ccccc3)[nH]2)s1 [compound 81]	1 (MIC100 of 11-20 μg/ml or an MIC50 of <10 μg/ml)

tested on: Human keratinocytes (HaCaT cells); assay: Human cytotoxicity assay in vitro (CellTiter-Glo), keratinocytes; format: cell-based; conditions: not given

SMILES	cytotoxicity, cell line K (keratinocytes), class
Cc1nc(-c2ccc(-c3cc(F)ccc3C(F)(F)F)o2)[nH]c1-c1ccccc1 [31a]	1 (causing less than 50% inhibition of cell viability at 50 μM)
Cc1[nH]c(-c2ccc(-c3cccc(Cl)c3Cl)o2)nc1-c1ccccc1 [compound 2]	1 (causing less than 50% inhibition of cell viability at 50 μM)
Cc1[nH]c(-c2ccc(-c3ccc(Cl)cc3)s2)nc1-c1ccccc1 [compound 6]	0 (not causing loss of cell viability at concentrations of 50 μM or higher)
Cc1[nH]c(-c2ccc(-c3ccc(F)cc3)s2)nc1-c1ccccc1 [compound 7]	2 (causing >50% inhibition of cell viability at 25 μM)
Cc1[nH]c(-c2cc(C)n(-c3ccc(F)c(F)c3F)c2C)nc1-c1ccccc1 [compound 10]	2 (causing >50% inhibition of cell viability at 25 μM)
Cc1[nH]c(-c2csc(-c3ccc(F)cc3)n2)nc1-c1ccccc1 [compound 11]	2 (causing >50% inhibition of cell viability at 25 μM)
Cc1[nH]c(-c2ccc(-c3cccc(Cl)c3)s2)nc1-c1ccccc1 [compound 12]	2 (causing >50% inhibition of cell viability at 25 μM)
Cc1[nH]c(-c2ccc(-c3cccc(Br)c3)s2)nc1-c1ccccc1 [compound 13]	1 (causing less than 50% inhibition of cell viability at 50 μM)
Cc1[nH]c(-c2csc(-c3cccc(Br)c3)n2)nc1-c1ccccc1 [compound 14]	1 (causing less than 50% inhibition of cell viability at 50 μM)
Cc1nc(-c2ccc(-c3ccccc3C(F)(F)F)o2)[nH]c1-c1ccccc1Cl [compound 20]	0 (not causing loss of cell viability at concentrations of 50 μM or higher)
Cc1[nH]c(-c2ccc(-c3ccccc3C(F)(F)F)o2)nc1-c1cccc(Cl)c1 [compound 22]	2 (causing >50% inhibition of cell viability at 25 μM)
Cc1[nH]c(-c2ccc(-c3ccccc3C(F)(F)F)o2)nc1-c1ccc(Br)cc1 [compound 25]	0 (not causing loss of cell viability at concentrations of 50 μM or higher)
Cc1[nH]c(-c2ccc(-c3ccccc3OC(F)(F)F)o2)nc1-c1ccc(C(F)(F)F)cc1 [compound 26]	0 (not causing loss of cell viability at concentrations of 50 μM or higher)
CCc1ccc(-c2[nH]c(-c3ccc(-c4ccccc4C(F)(F)F)o3)nc2C)cc1 [compound 28]	0 (not causing loss of cell viability at concentrations of 50 μM or higher)
Cc1nc(-c2ccc(-c3cccc(OC(F)(F)F)c3)o2)[nH]c1-c1ccccc1 [compound 34]	2 (causing >50% inhibition of cell viability at 25 μM)
Cc1nc(-c2ccc(-c3cc(C(F)(F)F)cc(C(F)(F)F)c3)o2)[nH]c1-c1ccccc1 [compound 35]	1 (causing less than 50% inhibition of cell viability at 50 μM)
Cc1[nH]c(-c2cc(C)n(-c3cccc(C(F)(F)F)c3)c2C)nc1-c1ccccc1 [compound 36]	2 (causing >50% inhibition of cell viability at 25 μM)
Cc1[nH]c(-c2ccc(-c3cc(C(F)(F)F)ccc3Cl)o2)nc1-c1ccccc1 [compound 40]	1 (causing less than 50% inhibition of cell viability at 50 μM)

SMILES	cytotoxicity, cell line K (keratinocytes), class
Cc1[nH]c(-c2ccc(-c3ccc(OC(F)(F)F)cc3)o2)nc1-c1ccc(Cl)cc1 [compound 48]	1 (causing less than 50% inhibition of cell viability at 50 μM)
Cc1[nH]c(-c2ccc(-c3ccc(C(F)(F)F)c(Cl)c3)o2)nc1-c1ccc(F)cc1 [compound 49]	2 (causing >50% inhibition of cell viability at 25 μM)
Cc1[nH]c(-c2ccc(-c3ccc(OC(F)(F)F)c(Cl)c3)o2)nc1-c1ccc(Cl)cc1 [compound 50]	1 (causing less than 50% inhibition of cell viability at 50 μM)
CCc1ccc(-c2ccc(-c3nc(-c4ccccc4)c(C)[nH]3)o2)cc1 [compound 53]	1 (causing less than 50% inhibition of cell viability at 50 μM)
Cc1ccc(-c2ccc(-c3nc(-c4ccccc4)c(C)[nH]3)s2)cc1 [compound 54]	1 (causing less than 50% inhibition of cell viability at 50 μM)
Cc1ccc(-c2nc(-c3nc(-c4ccccc4)c(C)[nH]3)cs2)cc1 [compound 56]	3 (causing more than 50% inhibition of cell viability at 10 μM)
Cc1ccc(-c2nc(-c3nc(-c4ccccc4)c(C)[nH]3)co2)cc1 [compound 57]	3 (causing more than 50% inhibition of cell viability at 10 μM)
Cc1[nH]c(-c2cc(C)n(-c3ccc(C(C)C)cc3)c2C)nc1-c1ccccc1 [compound 58]	2 (causing >50% inhibition of cell viability at 25 μM)
Cc1[nH]c(-c2cc(C)n(-c3ccc4c(c3)CCC4)c2C)nc1-c1ccccc1 [compound 59]	2 (causing >50% inhibition of cell viability at 25 μM)
Cc1ccccc1-c1ccc(-c2nc(-c3ccccc3)c(C)[nH]2)o1 [compound 61]	2 (causing >50% inhibition of cell viability at 25 μM)
Cc1cccc(C)c1-c1ccc(-c2nc(-c3ccccc3)c(C)[nH]2)o1 [compound 62]	2 (causing >50% inhibition of cell viability at 25 μM)
FC(F)(F)Oc1ccccc1-c1ccc(-c2nc(-c3ccccc3Cl)c[nH]2)o1 [compound 67]	2 (causing >50% inhibition of cell viability at 25 μM)
FC(F)(F)Oc1ccccc1-c1ccc(-c2nc(-c3ccc(Cl)cc3Cl)c[nH]2)o1 [compound 68]	2 (causing >50% inhibition of cell viability at 25 μM)
CN(C)Cc1[nH]c(-c2ccc(-c3ccccc3C(F)(F)F)o2)nc1-c1ccccc1 [compound 70]	2 (causing >50% inhibition of cell viability at 25 μM)
Cc1nc(-c2ccc(-c3ccccc3N(C)C)o2)[nH]c1-c1ccccc1 [compound 71]	1 (causing less than 50% inhibition of cell viability at 50 μM)
Cc1[nH]c(-c2coc(-c3ccccc3C(F)(F)F)c2)nc1-c1ccccc1 [compound 72]	2 (causing >50% inhibition of cell viability at 25 μM)
Cc1[nH]c(-c2ccc(-c3ccccc3)s2)nc1-c1ccccc1 [compound 74]	3 (causing more than 50% inhibition of cell viability at 10 μM)
